# Data published in the supplement of paper PMC8728848.
# This is one part of the list.
# B1: Epa23 (Candida glabrata) (protein)
# chain: MGSSHHHHHHSSGLVPRGSHMIPNPFEGTINNFPSGCSPNHGLYNRGLTMELYNYSYIHPQSIQSYFNTSTLKKMEKGQCWDPSYLDVNYPRTGYKTHNRFAKVNGIDGILDFEFNPTRSCVPSKGQLPQNYNYPLQFTLSNFTMLLYGYFKPKVTAKHTFTIFADDLLFLNFGAGNAFDCCQQQDTIDDFGNYQAYALWGSDTQQNTLTVNLDANIYYPIRMFYNNRDFKGALNMYFTTDESNTKINDFSGYLFNIPDSSEGCPAHISYETECGNVSG
# Columns and labels:
# Experiment in all cases: glycan array binding signal (z-score within array); higher = stronger binding
# Settings in all cases: glycan notation: IUPAC condensed, linker removed
# [1] = biological target: Gal(b1-4)GalNAc(b1-3)[Fuc(a1-2)]Gal(b1-4)GlcNAc
# Summary of the method: (§1)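 Negative Z-scores can be read as non-binding. The Z-score is calculated within each array and then averaged across arrays of one protein sequence at different concentrations or buffers and across linkers. Arrays, 3228 in all, were curated from the Consortium for Functional Glycomics database and kept only where the protein sequence was available.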
# [2] = biological target: Gal(b1-4)Glc
# Summary of the method: as §1
# [3] = biological target: Gal(b1-4)Glc6S
# Summary of the method: as §1
# [4] = biological target: Gal(b1-4)GlcNAc
# Summary of the method: as §1
# [5] = biological target: Gal(b1-4)GlcNAc(a1-6)Gal(b1-4)GlcNAc
# Summary of the method: as §1
# [6] = biological target: Gal(b1-4)GlcNAc(b1-2)Man
# Summary of the method: as §1
# [7] = biological target: Gal(b1-4)GlcNAc(b1-2)Man(a1-3)Man(b1-4)GlcNAc(b1-4)GlcNAc
# Summary of the method: as §1
# [8] = biological target: Gal(b1-4)GlcNAc(b1-2)Man(a1-3)[Gal(b1-4)GlcNAc(b1-2)Man(a1-6)]Man(b1-4)GlcNAc(b1-4)GlcNAc
# Summary of the method: as §1
# [9] = biological target: Gal(b1-4)GlcNAc(b1-2)Man(a1-3)[Gal(b1-4)GlcNAc(b1-2)Man(a1-6)]Man(b1-4)GlcNAc(b1-4)[Fuc(a1-6)]GlcNAc
# Summary of the method: as §1
# [10] = biological target: Gal(b1-4)GlcNAc(b1-2)Man(a1-3)[Gal(b1-4)GlcNAc(b1-2)Man(a1-6)][Gal(b1-4)GlcNAc(b1-4)]Man(b1-4)GlcNAc(b1-4)[Fuc(a1-6)]GlcNAc
# Summary of the method: as §1
# [11] = biological target: Gal(b1-4)GlcNAc(b1-2)Man(a1-3)[Gal(b1-4)GlcNAc(b1-2)Man(a1-6)][GlcNAc(b1-4)]Man(b1-4)GlcNAc(b1-4)[Fuc(a1-6)]GlcNAc
# Summary of the method: as §1
# [12] = biological target: Gal(b1-4)GlcNAc(b1-2)Man(a1-3)[GlcNAc(b1-2)Man(a1-6)]Man(b1-4)GlcNAc(b1-4)GlcNAc
# Summary of the method: as §1
# [13] = biological target: Gal(b1-4)GlcNAc(b1-2)Man(a1-3)[GlcNAc(b1-4)][Gal(b1-4)GlcNAc(b1-2)Man(a1-6)]Man(b1-4)GlcNAc(b1-4)GlcNAc
# Summary of the method: as §1
# [14] = biological target: Gal(b1-4)GlcNAc(b1-2)Man(a1-3)[Man(a1-6)]Man(b1-4)GlcNAc(b1-4)GlcNAc
# Summary of the method: as §1
# [15] = biological target: Gal(b1-4)GlcNAc(b1-2)Man(a1-6)Man(b1-4)GlcNAc(b1-4)GlcNAc
# Summary of the method: as §1
# [16] = biological target: Gal(b1-4)GlcNAc(b1-2)Man(a1-6)[GlcNAc(b1-2)Man(a1-3)]Man(b1-4)GlcNAc(b1-4)GlcNAc
# Summary of the method: as §1
# [17] = biological target: Gal(b1-4)GlcNAc(b1-2)Man(a1-6)[Man(a1-3)]Man(b1-4)GlcNAc(b1-4)GlcNAc
# Summary of the method: as §1
# [18] = biological target: Gal(b1-4)GlcNAc(b1-2)[Gal(b1-4)GlcNAc(b1-4)]Man(a1-3)[Gal(b1-4)GlcNAc(b1-2)Man(a1-6)]Man(b1-4)GlcNAc(b1-4)GlcNAc
# Summary of the method: as §1
# [19] = biological target: Gal(b1-4)GlcNAc(b1-2)[Gal(b1-4)GlcNAc(b1-4)]Man(a1-3)[Gal(b1-4)GlcNAc(b1-2)[Gal(b1-4)GlcNAc(b1-6)]Man(a1-6)]Man(b1-4)GlcNAc(b1-4)GlcNAc
# Summary of the method: as §1
# [20] = biological target: Gal(b1-4)GlcNAc(b1-2)[Gal(b1-4)GlcNAc(b1-4)]Man(a1-3)[GlcNAc(b1-4)][Gal(b1-4)GlcNAc(b1-2)Man(a1-6)]Man(b1-4)GlcNAc(b1-4)GlcNAc
# Summary of the method: as §1
# [21] = biological target: Gal(b1-4)GlcNAc(b1-2)[Gal(b1-4)GlcNAc(b1-4)]Man(a1-3)[GlcNAc(b1-4)][Gal(b1-4)GlcNAc(b1-2)[Gal(b1-4)GlcNAc(b1-6)]Man(a1-6)]Man(b1-4)GlcNAc(b1-4)GlcNAc
# Summary of the method: as §1
# [22] = biological target: Gal(b1-4)GlcNAc(b1-2)[Gal(b1-4)GlcNAc(b1-6)]Man(a1-6)[Gal(b1-4)GlcNAc(b1-2)Man(a1-3)]Man(b1-4)GlcNAc(b1-4)GlcNAc
# Summary of the method: as §1
# [23] = biological target: Gal(b1-4)GlcNAc(b1-2)[Gal(b1-4)GlcNAc(b1-6)]Man(a1-6)[Gal(b1-4)GlcNAc(b1-2)Man(a1-3)]Man(b1-4)GlcNAc(b1-4)[Fuc(a1-6)]GlcNAc
# Summary of the method: as §1
# [24] = biological target: Gal(b1-4)GlcNAc(b1-2)[Gal(b1-4)GlcNAc(b1-6)]Man(a1-6)[GlcNAc(b1-4)][Gal(b1-4)GlcNAc(b1-2)Man(a1-3)]Man(b1-4)GlcNAc(b1-4)GlcNAc
# Summary of the method: as §1
# [25] = biological target: Gal(b1-4)GlcNAc(b1-2)[Gal(b1-4)GlcNAc(b1-6)]Man(a1-6)[GlcNAc(b1-4)][Gal(b1-4)GlcNAc(b1-2)[Gal(b1-4)GlcNAc(b1-4)]Man(a1-3)]Man(b1-4)GlcNAc(b1-4)[Fuc(a1-6)]GlcNAc
# Summary of the method: as §1
# [26] = biological target: Gal(b1-4)GlcNAc(b1-3)Gal(b1-3)GalNAc
# Summary of the method: as §1
# [27] = biological target: Gal(b1-4)GlcNAc(b1-3)Gal(b1-3)GlcNAc
# Summary of the method: as §1
# [28] = biological target: Gal(b1-4)GlcNAc(b1-3)Gal(b1-4)Glc
# Summary of the method: as §1
# [29] = biological target: Gal(b1-4)GlcNAc(b1-3)Gal(b1-4)GlcNAc
# Summary of the method: as §1
# [30] = biological target: Gal(b1-4)GlcNAc(b1-3)Gal(b1-4)GlcNAc(b1-2)Man(a1-3)[Gal(b1-4)GlcNAc(b1-3)Gal(b1-4)GlcNAc(b1-2)Man(a1-6)]Man(b1-4)GlcNAc(b1-4)GlcNAc
# Summary of the method: as §1
# [31] = biological target: Gal(b1-4)GlcNAc(b1-3)Gal(b1-4)GlcNAc(b1-2)Man(a1-3)[Gal(b1-4)GlcNAc(b1-3)Gal(b1-4)GlcNAc(b1-2)Man(a1-6)]Man(b1-4)GlcNAc(b1-4)[Fuc(a1-6)]GlcNAc
# Summary of the method: as §1
# [32] = biological target: Gal(b1-4)GlcNAc(b1-3)Gal(b1-4)GlcNAc(b1-2)[Gal(b1-4)GlcNAc(b1-3)Gal(b1-4)GlcNAc(b1-6)]Man(a1-6)[Gal(b1-4)GlcNAc(b1-3)Gal(b1-4)GlcNAc(b1-2)Man(a1-3)]Man(b1-4)GlcNAc(b1-4)GlcNAc
# Summary of the method: as §1
# [33] = biological target: Gal(b1-4)GlcNAc(b1-3)Gal(b1-4)GlcNAc(b1-2)[Gal(b1-4)GlcNAc(b1-3)Gal(b1-4)GlcNAc(b1-6)]Man(a1-6)[Gal(b1-4)GlcNAc(b1-3)Gal(b1-4)GlcNAc(b1-2)Man(a1-3)]Man(b1-4)GlcNAc(b1-4)[Fuc(a1-6)]GlcNAc
# Summary of the method: as §1
# [34] = biological target: Gal(b1-4)GlcNAc(b1-3)Gal(b1-4)GlcNAc(b1-3)Gal(b1-4)GlcNAc
# Summary of the method: as §1
# [35] = biological target: Gal(b1-4)GlcNAc(b1-3)Gal(b1-4)GlcNAc(b1-3)Gal(b1-4)GlcNAc(b1-2)Man(a1-3)[Gal(b1-4)GlcNAc(b1-3)Gal(b1-4)GlcNAc(b1-3)Gal(b1-4)GlcNAc(b1-2)Man(a1-6)]Man(b1-4)GlcNAc(b1-4)GlcNAc
# Summary of the method: as §1
# [36] = biological target: Gal(b1-4)GlcNAc(b1-3)Gal(b1-4)GlcNAc(b1-3)Gal(b1-4)GlcNAc(b1-2)Man(a1-3)[Gal(b1-4)GlcNAc(b1-3)Gal(b1-4)GlcNAc(b1-3)Gal(b1-4)GlcNAc(b1-2)Man(a1-6)]Man(b1-4)GlcNAc(b1-4)[Fuc(a1-6)]GlcNAc
# Summary of the method: as §1
# [37] = biological target: Gal(b1-4)GlcNAc(b1-3)Gal(b1-4)GlcNAc(b1-3)Gal(b1-4)GlcNAc(b1-2)[Gal(b1-4)GlcNAc(b1-3)Gal(b1-4)GlcNAc(b1-3)Gal(b1-4)GlcNAc(b1-6)]Man(a1-6)[Gal(b1-4)GlcNAc(b1-3)Gal(b1-4)GlcNAc(b1-3)Gal(b1-4)GlcNAc(b1-2)Man(a1-3)]Man(b1-4)GlcNAc(b1-4)[Fuc(a1-6)]GlcNAc
# Summary of the method: as §1
binder,measurement,setting,value
B1,glycan array binding signal (z-score),[1],-0.248
same,glycan array binding signal (z-score),[2],-0.134
same,glycan array binding signal (z-score),[3],0.808
same,glycan array binding signal (z-score),[4],0.097
same,glycan array binding signal (z-score),[5],0.803
same,glycan array binding signal (z-score),[6],-0.254
same,glycan array binding signal (z-score),[7],0.377
same,glycan array binding signal (z-score),[8],-0.075
same,glycan array binding signal (z-score),[9],-0.062
same,glycan array binding signal (z-score),[10],-0.297
same,glycan array binding signal (z-score),[11],-0.232
same,glycan array binding signal (z-score),[12],-0.125
same,glycan array binding signal (z-score),[13],-0.279
same,glycan array binding signal (z-score),[14],-0.016
same,glycan array binding signal (z-score),[15],-0.17
same,glycan array binding signal (z-score),[16],-0.223
same,glycan array binding signal (z-score),[17],-0.182
same,glycan array binding signal (z-score),[18],0.305
same,glycan array binding signal (z-score),[19],0.486
same,glycan array binding signal (z-score),[20],-0.021
same,glycan array binding signal (z-score),[21],0.186
same,glycan array binding signal (z-score),[22],0.12
same,glycan array binding signal (z-score),[23],0.405
same,glycan array binding signal (z-score),[24],-0.053
same,glycan array binding signal (z-score),[25],0.324
same,glycan array binding signal (z-score),[26],0.201
same,glycan array binding signal (z-score),[27],-0.008
same,glycan array binding signal (z-score),[28],0.903
same,glycan array binding signal (z-score),[29],0.139
same,glycan array binding signal (z-score),[30],0.484
same,glycan array binding signal (z-score),[31],1.71
same,glycan array binding signal (z-score),[32],0.915
same,glycan array binding signal (z-score),[33],2.44
same,glycan array binding signal (z-score),[34],0.357
same,glycan array binding signal (z-score),[35],1.31
same,glycan array binding signal (z-score),[36],1.98
same,glycan array binding signal (z-score),[37],3.33
